{"source": "ChEMBL document CHEMBL4888484", "about": "“Replenishing the malaria drug discovery pipeline: Screening and hit evaluation of the MMV Hit Generation Library 1 (HGL1) against asexual blood stage Plasmodium falciparum ,using a nano luciferase reporter read-out” (2022)", "note": "Screen size: about 150,000 compounds; about 540 (0.36%) showed an effect of 50% or more. The list shows a part of the results.", "data": [{"test_system": "Plasmodium falciparum", "assay": "Primary screen in NF54 nanoGlo assay, in single point, at 2uM, 72h; a lower Z score goes with more inhibition", "type": "functional, Erythrocyte", "conditions": "timepoint 72 hour", "units": {"% Inhibition": "%"}, "values": [{"compound": "CCCC[C@H](N)C(=O)N1CCOC2(CCC2)C1", "% Inhibition": -17, "Z score": 1.94}, {"compound": "CCN(C[C@H](C)OC)C(=O)c1nn(C)c2ccccc2c1=O", "% Inhibition": 13, "Z score": -1.69}, {"compound": "CC(=O)c1ccc(NC(=O)N2CCC[C@H](C(=O)c3ccc4c(c3)OCO4)C2)cc1", "% Inhibition": -12, "Z score": 1.56}, {"compound": "CCS(=O)(=O)N1CCC(C(=O)OCc2ccc(OCc3nccn3C)cc2)CC1", "% Inhibition": 3, "Z score": -0.23}, {"compound": "Cn1cc(NC(=O)N2CCN3C(=O)CC[C@H]3C2)cn1", "% Inhibition": -12, "Z score": 2.3}, {"compound": "COc1ccc(C(OCC2OC(n3cnc4c(NC(=O)c5ccccc5)cnnc43)CC2O)(c2ccccc2)c2ccc(OC)cc2)cc1", "note": "(stereo not drawn)", "% Inhibition": 0, "Z score": -0.06}, {"compound": "COc1ccc2c(c1)CN(C(=O)Nc1nnn(C(C)C)n1)C2", "% Inhibition": -7, "Z score": 1.31}, {"compound": "COCc1ncc(C)n1CCNC(=O)c1ccsc1", "% Inhibition": -9, "Z score": 1.01}, {"compound": "COc1ccc([C@H]2CC(=O)Nc3nc(N4CCOCC4)sc32)cc1", "% Inhibition": 29, "Z score": -3.24}, {"compound": "CC(=O)N1CC[C@H](COC(=O)c2ccc(C)cc2Cl)C1", "% Inhibition": -11, "Z score": 1.52}, {"compound": "C[C@@H](CC1CCCC1)C(=O)NC1CCN(CCS(C)(=O)=O)CC1", "% Inhibition": -4, "Z score": 0.5}, {"compound": "O=C(c1csc(-c2cccs2)n1)N1CCc2sccc2[C@H]1c1ccccc1", "% Inhibition": -7, "Z score": 1.41}, {"compound": "Cc1ccsc1CN1CC(Oc2ccc(-c3noc(-c4cccnc4)n3)cc2)C1", "% Inhibition": -2, "Z score": 0.25}, {"compound": "O=C1OCCN1Cc1cc(F)cc(C(F)(F)F)c1", "% Inhibition": -2, "Z score": 0.41}, {"compound": "CC(OCC(F)(F)F)C(=O)NC1C2CCCCC21", "note": "(stereo not drawn)", "% Inhibition": -12, "Z score": 1.8}, {"compound": "Cn1cc(C(=O)NCCc2ccc(-c3ccsc3)s2)nn1", "% Inhibition": 3, "Z score": -0.58}, {"compound": "Cn1nc(C(=O)N2CCc3nc(NC(=O)c4ccco4)sc3C2)ccc1=O", "% Inhibition": -11, "Z score": 1.79}, {"compound": "O=C(NC1CC12CCCC2)NC1CC12CC2", "note": "(stereo not drawn)", "% Inhibition": -8, "Z score": 1.66}, {"compound": "C#Cc1cccc(NC(=O)CN(C)c2nc3ccccn3c2C#N)c1", "% Inhibition": -13, "Z score": 2.53}, {"compound": "CCCCc1nc(-c2nccn2[C@@H](C)c2nccs2)c[nH]1", "% Inhibition": 0, "Z score": -0.07}, {"compound": "CC(Oc1cccnc1)C(=O)N(C)C[C@@H]1CCCO1", "note": "(stereo partly drawn)", "% Inhibition": -10, "Z score": 1.57}, {"compound": "N#CC1(C#N)C(C(=O)c2ccc(Cl)cc2)C1(C#N)C#N", "% Inhibition": -26, "Z score": 3.05}, {"compound": "CCS(=O)(=O)CCNC1CC2CC1C1CCCC21", "note": "(stereo not drawn)", "% Inhibition": 3, "Z score": -0.35}, {"compound": "Cc1ccc(S(=O)(=O)N2CCC(=C3CCC3)CC2)cc1C", "% Inhibition": -11, "Z score": 1.65}, {"compound": "Cc1[nH]c(=O)[nH]c(=O)c1-c1ccc(C(=O)N2CCCCCCC2)cc1", "% Inhibition": -4, "Z score": 0.94}, {"compound": "O=C1[C@@H]2C[C@@H](CN2C(=O)c2cncnc2)Oc2ccccc2N1Cc1cccnc1", "% Inhibition": 34, "Z score": -0.72}, {"compound": "O=C(Nc1cccc2c1CCCC2)c1cnc(-n2cccn2)cn1", "% Inhibition": -10, "Z score": 2.09}, {"compound": "CC[C@@H](CO)NC(=O)c1ccc(OC)c(OC)c1", "% Inhibition": 29, "Z score": -3.7}, {"compound": "CC(=O)c1cc(-c2ncnn2C2CCCCC2)[nH]n1", "% Inhibition": 1, "Z score": -0.25}, {"compound": "C[C@H](NS(=O)(=O)c1ccccc1)c1cncs1", "% Inhibition": -7, "Z score": 1.37}, {"compound": "Nc1ncccc1CNC(=O)COCC(F)(F)C(F)F", "% Inhibition": 2, "Z score": -0.22}, {"compound": "COc1cccc(CC(=O)N2CCCCCCNC(=O)[C@H]3C[C@H](c4nc(C(C)C)no4)C[C@H]32)c1", "% Inhibition": -13, "Z score": 1.58}, {"compound": "C/C=C(\\C)CN1CCN(C(=O)OCC)CC1", "% Inhibition": -9, "Z score": 1.27}, {"compound": "Cc1ccc(NC(=O)N2CCCN(c3nc4cc(Cl)ccc4n4cccc34)CC2)c(Cl)c1", "% Inhibition": 0, "Z score": 0}, {"compound": "Cc1cccc(NC(=O)N(CCN(C)C)C2CCOCC2)c1C", "% Inhibition": 1, "Z score": -0.15}, {"compound": "COc1cccc(C2c3[nH]c4ccccc4c3C[C@H]3C(=O)N(c4ccccc4C(=O)N4CCCC4C(=O)O)C(=O)N23)c1", "note": "(stereo partly drawn)", "% Inhibition": -4, "Z score": 0.51}, {"compound": "CS(=O)(=O)N(CCCC(=O)Nc1ccc2c(c1)OCCO2)c1ccccc1F", "% Inhibition": -4, "Z score": 0.66}, {"compound": "Cc1oc(-c2cccc(F)c2F)nc1CN1CC[C@H](O)[C@@H](O)C1", "% Inhibition": -7, "Z score": 1.31}, {"compound": "c1ccc2cc(-c3ncc(CNCc4nnc5n4CCC5)cn3)ccc2c1", "% Inhibition": 4, "Z score": -0.6}, {"compound": "Cc1ccc(C(=O)N2CCc3nc[nH]c3[C@H]2c2ccccn2)cn1", "% Inhibition": -2, "Z score": 0.24}, {"compound": "CCO[C@H]1COC[C@@H]1NC(=O)Nc1ccnn1-c1ccccc1", "% Inhibition": -18, "Z score": 3.03}, {"compound": "Cn1ncc(Cl)c1C(=O)N[C@@]12CCC[C@@H]1C2", "% Inhibition": -7, "Z score": 0.59}, {"compound": "CC(C)CN(Cc1ccsc1)C(=O)Cn1ccc(=O)cc1", "% Inhibition": -4, "Z score": 0.89}, {"compound": "O=C(c1cccc(Cl)c1)[C@H]1CCCN(C(=O)CCCn2ccnc2)C1", "% Inhibition": 5, "Z score": -0.59}, {"compound": "Cc1cccc(-n2cc(-c3ccccc3)nc2NC(=O)CN(Cc2ccco2)C(=O)c2ccccc2Cl)c1", "% Inhibition": -7, "Z score": 1.03}, {"compound": "CCN(C(=O)c1nnc(C(C)C)s1)[C@H]1CCOC1", "% Inhibition": -14, "Z score": 2.15}, {"compound": "COc1ccc(F)c(CN(C)Cc2nc(C)cs2)c1F", "% Inhibition": -15, "Z score": 2.1}, {"compound": "CCN(CCOc1cccc(OC)c1)C(=O)c1cc(C(C)C)nn1C", "% Inhibition": 13, "Z score": -1.6}, {"compound": "COc1cccc(CNC(=O)Cn2ccc3ccn(Cc4ccccc4C)c3c2=O)c1", "% Inhibition": 10, "Z score": -1.16}, {"compound": "CNc1ncc(-c2nc(-c3ccco3)nn2[C@H]2CCS(=O)(=O)C2)cn1", "% Inhibition": -3, "Z score": 0.47}, {"compound": "Cc1n[nH]c(C)c1CCC(=O)N1C[C@@H]2CC[C@H]1CN(Cc1cscn1)C2", "% Inhibition": -8, "Z score": 1.3}, {"compound": "COc1ccc(CNC/C=C/c2ccccc2)cc1", "% Inhibition": -20, "Z score": 2.3}, {"compound": "CCCNC(=O)CN(C)Cc1nc(CC)no1", "% Inhibition": -7, "Z score": 1.04}, {"compound": "Cn1cc(CN2CCCC[C@H]2C(=O)N2CCOCC2)nn1", "% Inhibition": -4, "Z score": 0.52}, {"compound": "Cc1noc(C)c1CN1C(=O)[C@@H]2CC[C@H]1CN(c1cc(N)ncn1)C2", "% Inhibition": 3, "Z score": -0.49}, {"compound": "O=C1Cc2cc(S(=O)(=O)N3CCCc4ccccc43)ccc2N1", "% Inhibition": 7, "Z score": -0.92}, {"compound": "COCCCNC(=O)CN(c1cc(Cl)c(Cl)cc1Cl)S(C)(=O)=O", "% Inhibition": 1, "Z score": -0.2}, {"compound": "COc1ccc(C[C@@H](Cc2ccc3c(c2)OCO3)NC(=O)Nc2ccc3c(c2)OCCO3)cc1", "% Inhibition": -8, "Z score": 1.29}, {"compound": "CC(C)CCn1c(=O)n(CCN2C[C@H]3CC[C@H]2C3)c2cc(C(=O)O)cnc21", "% Inhibition": -19, "Z score": 2.5}, {"compound": "Cc1c(C(=O)N2CCOCC2)sc2ncnc(N[C@@H](C)c3cccs3)c12", "% Inhibition": -10, "Z score": 1.79}, {"compound": "COc1ccccc1-c1noc2ncnc(N3CCCCCC3)c12", "% Inhibition": -1, "Z score": 0.16}, {"compound": "COCCOCCn1ncc2c(cnn2-c2ccccc2)c1=O", "% Inhibition": 1, "Z score": -0.12}, {"compound": "Cc1cccc(O)c1C(=O)N[C@H]1CCN(C2CCCCC2)C1", "% Inhibition": 0, "Z score": 0.02}, {"compound": "O=C(NCc1ccc(C(=O)N2CCOCC2)cc1)c1cc(Br)ccc1F", "% Inhibition": -7, "Z score": 0.93}, {"compound": "Cc1ccc(Cl)cc1N(C)C(=O)c1c2c(nc3ccccc13)C(=O)N(C1CCCCC1)C2", "% Inhibition": -5, "Z score": 0.86}, {"compound": "NS(=O)(=O)C[C@H]1CCCCN1S(=O)(=O)c1ccco1", "% Inhibition": -11, "Z score": 2.1}, {"compound": "O=C(c1coc(COc2ccc3ncccc3c2)n1)N1CCC1", "% Inhibition": -13, "Z score": 2.57}, {"compound": "O=C(Cn1cc(S(=O)(=O)Cc2cccc3ccccc23)c2ccccc21)N1CCCC1", "% Inhibition": 20, "Z score": -2.58}, {"compound": "CNCC#CCOc1cc(C)cc(C)c1", "% Inhibition": -6, "Z score": 0.61}, {"compound": "CCc1ccc2[nH]c3c(c(=O)c2c1)CN(CC(=O)NCc1ccccc1Cl)CC3", "% Inhibition": -9, "Z score": 1.03}, {"compound": "C[C@@H](CCC(=O)N(C)Cc1nc2ccccc2n1C)N1CCOCC1", "% Inhibition": 2, "Z score": -0.38}, {"compound": "Cc1nccn1-c1cc(CNC(=O)[C@H]2CCCN(C(=O)c3ccoc3)C2)ccn1", "% Inhibition": -5, "Z score": 0.54}, {"compound": "OC[C@]1(O)CCCN(Cc2sc3ccccc3c2Cl)CC1", "% Inhibition": -16, "Z score": 2.72}, {"compound": "CCC(C)NC(=O)CN1CCOCC1c1ncno1", "note": "(stereo not drawn)", "% Inhibition": 3, "Z score": -0.48}, {"compound": "CCc1cccc(C)c1-n1c(N)c(C(=O)NCc2ccco2)sc1=S", "% Inhibition": 3, "Z score": -0.46}, {"compound": "CCOC(=O)c1[nH]c2c(c1OC(C)=O)CCC2", "% Inhibition": -3, "Z score": 0.39}, {"compound": "Cc1cccnc1CN(C(=O)Nc1cncc(F)c1)C(C)C", "% Inhibition": -2, "Z score": 0.32}, {"compound": "O=C1N[C@H](c2cccc(O)c2)C(=O)N1c1ccccc1OC(F)(F)F", "% Inhibition": -11, "Z score": 1.54}, {"compound": "CCOC(=O)c1c(-c2ccccc2)n(S(C)(=O)=O)c2ccc(NS(C)(=O)=O)cc12", "% Inhibition": -12, "Z score": 1.37}, {"compound": "O=C(C1CCC1)N(Cc1ccc(F)cc1)C[C@H]1CC(c2ccc(Cl)cc2)=NO1", "% Inhibition": -7, "Z score": 1.11}, {"compound": "Cc1cccc(N2C(=O)C3C4C=CC(C4=C4CCCCC4)C3C2=O)c1", "note": "(stereo not drawn)", "% Inhibition": 0, "Z score": 0.03}, {"compound": "CC(=O)Nc1nc(C(=O)Nc2ccccc2-c2ccccc2)cs1", "% Inhibition": -4, "Z score": 0.78}, {"compound": "COc1ccc(CNC(=O)CC2CCN(C(=O)c3[nH]c(C)cc3C)CC2)cc1", "% Inhibition": 2, "Z score": -0.26}, {"compound": "CC(=O)Nc1ccc(OCC(=O)N2CCCCCC2)nc1", "% Inhibition": -7, "Z score": 1.19}]}]}
